Not every detail of the peptide structures is certain; ends, links or a residue may be inferred. Some entries repeat one wording, which the source may state once for all of them. Where a SMILES comes first, the peptide text is derived from it. Bridges are numbered along the chain shown (N, C = ends).
Target: T1, NPR-B (Mus musculus, UniProt Q6VVW5)
T1 sequence (Q6VVW5 17-1047): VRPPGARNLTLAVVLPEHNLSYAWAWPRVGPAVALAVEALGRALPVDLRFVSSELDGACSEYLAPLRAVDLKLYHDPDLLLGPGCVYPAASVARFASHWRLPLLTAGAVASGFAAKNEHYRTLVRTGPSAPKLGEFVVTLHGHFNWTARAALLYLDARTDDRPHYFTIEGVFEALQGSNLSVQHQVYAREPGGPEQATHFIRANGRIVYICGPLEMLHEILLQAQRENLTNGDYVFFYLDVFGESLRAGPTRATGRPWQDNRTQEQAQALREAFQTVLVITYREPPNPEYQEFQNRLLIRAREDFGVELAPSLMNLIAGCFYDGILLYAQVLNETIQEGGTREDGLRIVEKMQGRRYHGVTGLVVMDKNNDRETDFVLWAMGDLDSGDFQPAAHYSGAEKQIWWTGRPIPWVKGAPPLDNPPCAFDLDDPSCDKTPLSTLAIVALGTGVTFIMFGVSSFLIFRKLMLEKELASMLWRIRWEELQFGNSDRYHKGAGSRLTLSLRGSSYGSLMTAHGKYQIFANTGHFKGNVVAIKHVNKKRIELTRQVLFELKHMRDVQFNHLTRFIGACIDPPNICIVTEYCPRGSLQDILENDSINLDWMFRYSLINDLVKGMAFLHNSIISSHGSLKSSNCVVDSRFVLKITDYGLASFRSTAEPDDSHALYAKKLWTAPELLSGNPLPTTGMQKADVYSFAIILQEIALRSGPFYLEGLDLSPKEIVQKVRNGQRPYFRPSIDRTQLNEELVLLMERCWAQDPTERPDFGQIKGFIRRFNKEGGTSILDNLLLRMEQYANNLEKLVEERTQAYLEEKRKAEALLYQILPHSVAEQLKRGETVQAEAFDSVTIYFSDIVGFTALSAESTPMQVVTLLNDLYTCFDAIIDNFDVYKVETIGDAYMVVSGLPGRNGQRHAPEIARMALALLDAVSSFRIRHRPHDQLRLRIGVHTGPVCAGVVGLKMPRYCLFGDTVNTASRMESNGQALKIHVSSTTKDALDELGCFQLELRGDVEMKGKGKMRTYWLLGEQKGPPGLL
Assay: stimulation of cGMP production in NIH3T3 cells
Format: cell-based, murine
Parameters: Murine NIH3T3 cells express endogenously the CNP signaling receptor, NPR-B; endogenous in cells; host or cells: NIH3T3
Procedure: To determine the functional activity of CNP variants, the production of cGMP was measured in NIH3T3 cells exposed to the CNP variants. Murine NIH3T3 cells express endogenously the CNP signaling receptor, NPR-B, which shares 98% protein sequence identity with human NPR-B. NIH3T3 cells were cultured in high glucose Dulbecco's Modified Eagle Medium supplemented with 10% fetal calf serum and antibiotics at 37° C. with 5% CO2). Twenty four to 48 hours prior to signaling, cells were passaged to 12-well plates with a density of 2-5×10^5 cells per well at the time of the assay. CNP variants were resuspended in 1 mM HCl to a stock concentration of 1 mg/mL (455 uM for wtCNP22) and subsequently diluted to a 30 uM working stock solution with phosphate-buffered saline (PBS). Ten-fold serial dilutions were prepared in phosphate-buffered saline. Culture medium was removed from the cells and replaced with 0.4 mL PBS/Dulbecco's modified Eagle medium (50/50, v/v) containing 0.75 mM isobutylmethylxanine. Plates were incubated at 37° C., 5% CO2 for 15 minutes before addition of 0.2 mL CNP variant in PBS and continued incubation at 37° C. for 15 minutes. Reactions were stopped by the addition of 0.2 mL lysis buffer supplied with the CatchPoint cGMP assay kit (Molecular Devices), and cGMP production was determined with the CatchPoint cGMP Assay (Molecular Devices). All stimulation experiments were performed in duplicate.
Tables 1-4 summarize the ability of CNP variants having backbone or side chain modifications, amino acid substitutions, N-terminal amino acid extensions, and/or N-terminal PEGylation, respectively, to stimulate cGMP production in NIH3T3 cells. In all four tables, the values for cGMP production in NIH3T3 cells exposed to 10 nM or 1 uM CNP variant are normalized to cell number and cGMP production in the presence of 1 uM wtCNP22.

CC[C@H](C)[C@@H]1NC(=O)[C@H](CCCNC(=N)N)NC(=O)[C@H](CC(=O)O)NC(=O)[C@H](CC(C)C)NC(=O)[C@H](CCCCN)NC(=O)[C@H](CC(C)C)NC(=O)CNC(=O)[C@H](Cc2ccccc2)NC(=O)[C@@H](NC(=O)[C@H](CCCNC(=N)N)NC(=O)[C@H](CCCNC(=N)N)NC(=O)[C@H](CO)NC(=O)[C@H](CC(C)C)NC(=O)CN)CSSC[C@@H](C(=O)O)NC(=O)CNC(=O)[C@H](CC(C)C)NC(=O)CNC(=O)[C@H](CO)NC(=O)[C@H](CCSC)NC(=O)[C@H](CO)NC(=O)CNC1=O [Analog BO, CNP22, K4R, G5R] (H-GLSRRCFGLKLDRIGSMSGLGC-OH; disulfide 6-22)
NPR-B stimulation activity / cGMP production compared with wtCNP22 (in words): substantially similar NPR-B stimulation activity as wtCNP22

CC[C@H](C)[C@@H]1NC(=O)[C@H](CCCNC(=N)N)NC(=O)[C@H](CC(=O)O)NC(=O)[C@H](CC(C)C)NC(=O)[C@H](CCCCN)NC(=O)[C@H](CC(C)C)NC(=O)CNC(=O)[C@H](Cc2ccccc2)NC(=O)[C@@H](NC(=O)CNC(=O)[C@H](CCCNC(=N)N)NC(=O)[C@H](CO)NC(=O)[C@H](CC(C)C)NC(=O)CN)CSSC[C@@H](C(=O)O)NC(=O)CNC(=O)[C@H](CC(C)C)NC(=O)[C@H](CCCNC(=N)N)NC(=O)[C@H](CO)NC(=O)[C@H](CCSC)NC(=O)[C@H](CO)NC(=O)CNC1=O [Analog BR, CNP22, K4R, G19R] (H-GLSRGCFGLKLDRIGSMSRLGC-OH; disulfide 6-22)
NPR-B stimulation activity / cGMP production compared with wtCNP22 (in words): substantially similar NPR-B stimulation activity as wtCNP22
